From ChEMBL document CHEMBL5634115, “Exploring novel anticancer pyrazole benzenesulfonamides featuring tail approach strategy as carbonic anhydrase inhibitors” (Eur J Med Chem, 2023)

What was measured:
Assay in all cases: cells
K562 [1] = conditions: Homo sapiens, K562, 48 h
COLO 205 [2] = conditions: Homo sapiens, COLO 205, 48 h, read-out: LC50
SK-MEL-5 = assay type: functional; conditions: Homo sapiens, time 48 hrs
KM12 = assay type: functional; conditions: Homo sapiens, time 48 hrs
IGROV-1 [3] = assay type: functional; conditions: Homo sapiens, time 48 hrs
MCF7 [4] = assay type: functional; conditions: Homo sapiens, time 48 hrs
MDA-MB-435 [5] = conditions: Homo sapiens, MDA-MB-435, 48 h, read-out: LC50
NCI/ADR-RES [6] = assay type: functional; conditions: Homo sapiens, time 48 hrs
SF-268 = conditions: Homo sapiens, SF-268, 48 h, read-out: LC50
MDA-MB-435 [7] = assay type: functional; conditions: Homo sapiens, time 48 hrs
NCI-H322M [8] = assay type: functional; conditions: Homo sapiens, time 48 hrs
786-0 = assay type: functional; conditions: Homo sapiens, time 48 hrs
OVCAR-8 = conditions: Homo sapiens, OVCAR-8, 48 h, read-out: LC50
OVCAR-3 [9] = conditions: Homo sapiens, OVCAR-3, 48 h, read-out: LC50
IGROV-1 [10] = assay type: functional; conditions: Homo sapiens, time 48 hrs; remark: listed apart in the source
NCI-H460 = assay type: functional; conditions: Homo sapiens, time 48 hrs
U-251 [11] = assay type: functional; conditions: Homo sapiens, time 48 hrs
HOP-62 [12] = conditions: Homo sapiens, HOP-62, 48 h, read-out: LC50
OVCAR-3 [13] = assay type: functional; conditions: Homo sapiens, time 48 hrs
IGROV-1 [14] = conditions: Homo sapiens, IGROV-1, 48 h, read-out: LC50
UACC-62 = assay type: functional; conditions: Homo sapiens, time 48 hrs
HOP-62 [15] = assay type: functional; conditions: Homo sapiens, time 48 hrs
HOP-62 [16] = assay type: functional; conditions: Homo sapiens, time 48 hrs; remark: listed apart in the source
TK-10 = assay type: functional; conditions: Homo sapiens, time 48 hrs
SW-620 [17] = conditions: Homo sapiens, SW-620, 48 h, read-out: LC50
SK-MEL-2 = assay type: functional; conditions: Homo sapiens, time 48 hrs
K562 [18] = assay type: functional; conditions: Homo sapiens, time 48 hrs
OVCAR-4 [19] = assay type: functional; conditions: Homo sapiens, time 48 hrs
MCF7 [20] = assay type: functional; conditions: Homo sapiens, time 48 hrs; remark: listed apart in the source
OVCAR-5 = conditions: Homo sapiens, OVCAR-5, 48 h, read-out: LC50
HL-60(TB) = conditions: Homo sapiens, HL-60, 48 h, read-out: LC50
SN12C = assay type: functional; conditions: Homo sapiens, time 48 hrs
BT-549 [21] = conditions: Homo sapiens, BT-549, 48 h, read-out: LC50
MDA-MB-468 = conditions: Homo sapiens, MDA-MB-468, 48 h, read-out: LC50
COLO 205 [22] = assay type: functional; conditions: Homo sapiens, time 48 hrs
HCT-15 = assay type: functional; conditions: Homo sapiens, time 48 hrs
OVCAR-4 [23] = assay type: functional; conditions: Homo sapiens, time 48 hrs; remark: listed apart in the source
MOLT-4 = assay type: functional; conditions: Homo sapiens, time 48 hrs
T47D [24] = conditions: Homo sapiens, 48 h, read-out: LC50
MCF7 [25] = conditions: Homo sapiens, MCF7, 48 h, read-out: LC50
NCI/ADR-RES [26] = conditions: Homo sapiens, 48 h, read-out: LC50
A549 = assay type: functional; conditions: Homo sapiens, time 48 hrs
SNB-19 = assay type: functional; conditions: Homo sapiens, time 48 hrs
SK-MEL-28 = conditions: Homo sapiens, SK-MEL-28, 48 h, read-out: LC50
Malme-3M [27] = assay type: functional; conditions: Homo sapiens, time 48 hrs
U-251 [28] = assay type: functional; conditions: Homo sapiens, time 48 hrs; remark: listed apart in the source
HCC 2998 = assay type: functional; conditions: Homo sapiens, time 48 hrs
HT-29 = conditions: Homo sapiens, HT-29, 48 h, read-out: LC50
SR [29] = conditions: Homo sapiens, 48 h, read-out: LC50
NCI-H322M [30] = assay type: functional; conditions: Homo sapiens, time 48 hrs; remark: listed apart in the source
Malme-3M [31] = assay type: functional; conditions: Homo sapiens, time 48 hrs; remark: listed apart in the source
SF-539 = assay type: functional; conditions: Homo sapiens, time 48 hrs
SW-620 [32] = assay type: functional; conditions: Homo sapiens, time 48 hrs
BT-549 [33] = assay type: functional; conditions: Homo sapiens, time 48 hrs
Hs-578T = assay type: functional; conditions: Homo sapiens, time 48 hrs
SR [34] = assay type: functional; conditions: Homo sapiens, time 48 hrs
SF-295 = assay type: functional; conditions: Homo sapiens, time 48 hrs
RPMI-8226 = assay type: functional; conditions: Homo sapiens, time 48 hrs
T47D [35] = assay type: functional; conditions: Homo sapiens, time 48 hrs
M14 = assay type: functional; conditions: Homo sapiens, time 48 hrs
UACC-257 = assay type: functional; conditions: Homo sapiens, time 48 hrs
MDA-MB-231 = assay type: functional; conditions: Homo sapiens, time 48 hrs
PC-3 = assay type: functional; conditions: Homo sapiens, time 48 hrs

Question: With CCOC(=O)c1ccc(N/N=C/c2cn(-c3ccc(S(N)(=O)=O)cc3)nc2-c2ccc(OC)cc2)cc1 as the molecule, how does the TGI (K562 [1]) read?
Answer: 14.5 µM

Question: And the CC50 (COLO 205 [2])?
Answer: > 100 µM

Question: What about the TGI (SK-MEL-5) of the same molecule?
Answer: 3.49 µM

Question: And the TGI (KM12)?
Answer: 4.48 µM

Question: And the GI50 (IGROV-1 [3])?
Answer: 4.56 µM

Question: And the TGI (MCF7 [4])?
Answer: 5.72 µM

Question: What about the CC50 (MDA-MB-435 [5]) of the same molecule?
Answer: > 100 µM

Question: What about the GI50 (NCI/ADR-RES [6]) of the same molecule?
Answer: 2.61 µM

Question: And the CC50 (SF-268)?
Answer: > 100 µM

Question: What about the TGI (MDA-MB-435 [7]) of the same molecule?
Answer: 5.48 µM

Question: And the TGI (NCI-H322M [8])?
Answer: > 100 µM

Question: What about the GI50 (786-0) of the same molecule?
Answer: 2.23 µM

Question: And the CC50 (OVCAR-8)?
Answer: > 100 µM

Question: And the CC50 (OVCAR-3 [9])?
Answer: 92 µM

Question: And the TGI (IGROV-1 [10])?
Answer: 55.7 µM

Question: And the GI50 (NCI-H460)?
Answer: 2.71 µM

Question: And the GI50 (U-251 [11])?
Answer: 4.1 µM

Question: What about the CC50 (HOP-62 [12]) of the same molecule?
Answer: > 100 µM

Question: And the TGI (OVCAR-3 [13])?
Answer: 5.55 µM

Question: And the CC50 (IGROV-1 [14])?
Answer: > 100 µM

Question: And the GI50 (UACC-62)?
Answer: 4 µM

Question: What about the TGI (HOP-62 [15]) of the same molecule?
Answer: > 100 µM

Question: And the GI50 (HOP-62 [16])?
Answer: 3.97 µM

Question: And the GI50 (TK-10)?
Answer: 19.2 µM

Question: And the CC50 (SW-620 [17])?
Answer: > 100 µM

Question: What about the GI50 (SK-MEL-2) of the same molecule?
Answer: 3.5 µM

Question: What about the GI50 (K562 [18]) of the same molecule?
Answer: 2.86 µM

Question: And the GI50 (OVCAR-4 [19])?
Answer: 6.37 µM

Question: What about the GI50 (MCF7 [20]) of the same molecule?
Answer: 2.13 µM

Question: What about the CC50 (OVCAR-5) of the same molecule?
Answer: 90.1 µM

Question: What about the CC50 (HL-60(TB)) of the same molecule?
Answer: > 100 µM

Question: What about the TGI (SN12C) of the same molecule?
Answer: > 100 µM

Question: What about the CC50 (BT-549 [21]) of the same molecule?
Answer: > 100 µM

Question: What about the CC50 (MDA-MB-468) of the same molecule?
Answer: > 100 µM

Question: And the GI50 (COLO 205 [22])?
Answer: 13.4 µM

Question: And the TGI (HCT-15)?
Answer: 8.35 µM

Question: What about the TGI (OVCAR-4 [23]) of the same molecule?
Answer: > 100 µM

Question: And the GI50 (MOLT-4)?
Answer: 2.72 µM

Question: And the CC50 (T47D [24])?
Answer: > 100 µM

Question: And the CC50 (MCF7 [25])?
Answer: > 100 µM

Question: And the CC50 (NCI/ADR-RES [26])?
Answer: > 100 µM

Question: What about the GI50 (A549) of the same molecule?
Answer: 3.58 µM

Question: And the TGI (SNB-19)?
Answer: > 100 µM

Question: And the CC50 (SK-MEL-28)?
Answer: > 100 µM

Question: And the GI50 (Malme-3M [27])?
Answer: 3.68 µM

Question: What about the TGI (U-251 [28]) of the same molecule?
Answer: > 100 µM

Question: And the TGI (HCC 2998)?
Answer: 4.42 µM

Question: And the CC50 (HT-29)?
Answer: > 100 µM

Question: What about the CC50 (SR [29]) of the same molecule?
Answer: > 100 µM

Question: What about the GI50 (NCI-H322M [30]) of the same molecule?
Answer: 3.35 µM

Question: And the TGI (Malme-3M [31])?
Answer: 17.5 µM

Question: And the TGI (SF-539)?
Answer: 3.81 µM

Question: What about the TGI (SW-620 [32]) of the same molecule?
Answer: > 100 µM

Question: And the GI50 (BT-549 [33])?
Answer: 4.79 µM

Question: What about the GI50 (Hs-578T) of the same molecule?
Answer: 2.53 µM

Question: What about the TGI (SR [34]) of the same molecule?
Answer: 6.63 µM

Question: What about the GI50 (SF-295) of the same molecule?
Answer: 4.3 µM

Question: And the GI50 (RPMI-8226)?
Answer: 3.17 µM

Question: And the GI50 (T47D [35])?
Answer: 3.64 µM

Question: What about the GI50 (M14) of the same molecule?
Answer: 2.13 µM

Question: And the GI50 (UACC-257)?
Answer: 12.3 µM

Question: What about the GI50 (MDA-MB-231) of the same molecule?
Answer: 2.64 µM

Question: And the GI50 (PC-3)?
Answer: 2.86 µM

Question: Which results are given for CCOC(=O)c1ccc(N/N=C/c2cn(-c3ccc(S(N)(=O)=O)cc3)nc2-c2ccccc2)cc1?
Answer: TGI (K562 [1]): 6.39 µM; CC50 (COLO 205 [2]): > 100 µM; TGI (SK-MEL-5): 3.01 µM; TGI (KM12): 3.82 µM; GI50 (IGROV-1 [3]): 3.42 µM; TGI (MCF7 [4]): 5.62 µM; CC50 (MDA-MB-435 [5]): 9.44 µM; GI50 (NCI/ADR-RES [6]): 2.11 µM; CC50 (SF-268): > 100 µM; TGI (MDA-MB-435 [7]): 4.38 µM; TGI (NCI-H322M [8]): 17.5 µM; GI50 (786-0): 2.18 µM; CC50 (OVCAR-8): > 100 µM; CC50 (OVCAR-3 [9]): > 100 µM; TGI (IGROV-1 [10]): 13.9 µM; GI50 (NCI-H460): 2.23 µM; GI50 (U-251 [11]): 2.84 µM; CC50 (HOP-62 [12]): 80.4 µM; TGI (OVCAR-3 [13]): 5.02 µM; CC50 (IGROV-1 [14]): > 100 µM; GI50 (UACC-62): 2.65 µM; TGI (HOP-62 [15]): 12.4 µM; GI50 (HOP-62 [16]): 3.25 µM; GI50 (TK-10): 6.21 µM; CC50 (SW-620 [17]): > 100 µM; GI50 (SK-MEL-2): 2.47 µM; GI50 (K562 [18]): 2.28 µM; GI50 (OVCAR-4 [19]): 4.23 µM; GI50 (MCF7 [20]): 2.1 µM; CC50 (OVCAR-5): 49.1 µM; CC50 (HL-60(TB)): > 100 µM; TGI (SN12C): 32.6 µM; CC50 (BT-549 [21]): 54.2 µM; CC50 (MDA-MB-468): 8.16 µM; GI50 (COLO 205 [22]): 3.16 µM; TGI (HCT-15): 3.28 µM; TGI (OVCAR-4 [23]): 47.6 µM; GI50 (MOLT-4): 1.71 µM; CC50 (T47D [24]): > 100 µM; CC50 (MCF7 [25]): > 100 µM; CC50 (NCI/ADR-RES [26]): > 100 µM; GI50 (A549): 3.15 µM; TGI (SNB-19): 19 µM; CC50 (SK-MEL-28): 43.6 µM; GI50 (Malme-3M [27]): 1.97 µM; TGI (U-251 [28]): 9.9 µM; TGI (HCC 2998): 3.58 µM; CC50 (HT-29): 32.2 µM; CC50 (SR [29]): > 100 µM; GI50 (NCI-H322M [30]): 2.83 µM; TGI (Malme-3M [31]): 4.69 µM; TGI (SF-539): 3.49 µM; TGI (SW-620 [32]): 6.8 µM; GI50 (BT-549 [33]): 3.45 µM; GI50 (Hs-578T): 2.19 µM; TGI (SR [34]): 4.84 µM; GI50 (SF-295): 2.15 µM; GI50 (RPMI-8226): 2.64 µM; GI50 (T47D [35]): 3.07 µM; GI50 (M14): 2 µM; GI50 (UACC-257): 5.4 µM; GI50 (MDA-MB-231): 2.09 µM; GI50 (PC-3): 2.92 µM
